Measured values published in PubChem BioAssay AID1345083 (National Center for Advancing Translational Sciences (NCATS), 2018).
The campaign covered roughly 94,000 compounds. About 6,200 (6.6%) were called active. The shares of active, inactive and inconclusive entries below differ from those in the screen. Calls come from the whole dose curve; as a rule, active = well fitted inhibition curve with a large enough effect; inconclusive = small, poorly fitted or top-dose-only effect; inactive = flat fitted curve, though single readings scatter. Potencies of inconclusive entries are doubtful fits and often do not repeat.
% is set by controls: 0 for no effect and ±100 for the full control effect; potency is the fitted concentration of half-maximal effect; tags give direction and shape of the fitted curve.

Experiment: Cytotoxic Profiling in HEK 293 Cell Line of Diverse Libraries Using Quantitative High-Throughput Screening; note: nearly all actives have a fitted effect of over 60% in size
Settings: HEK 293 viability, ATP luminescence (CellTiter-Glo), 48-72 h; activity change, negative = cytotoxicity: at 115 µM (top of the series) unless noted; series mostly up to 115 µM
How it was run: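 Read-out: CellTiter-Glo ATP luminescence. Cells: HEK 293, 250 cells/well. Exposure: 48 or 72 hr, 37 degree Celsius.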
For `COc1ccc2c(c1)CCc1c-2n[nH]c1C(=O)N1CCC(c2noc(COc3ccc(C)cc3)n2)CC1`, the Potency was active: 22.4 µM. With `COc1cccc(Nc2ncc3c(n2)C(C)(C(=O)NC2CCN(C)CC2)CC3)c1` (stereo not drawn) the Potency was active: 89.1 µM. In the case of `Cc1ccc(C(=O)N2CCc3nc(C(C)C)nc(-c4ccc(O)cc4)c3C2)cc1`, the Potency is reported as inconclusive: 89.1 µM [inhibitor, single point]. In the case of `Cc1ccc(C(=O)N(C)CC2CCOCC2)cc1`, the “activity change, negative = cytotoxicity” value is reported as inactive: 3.67%. In the case of `Cn1c([C@H]2CCN(Cc3ccc(F)c(F)c3)C2)nc2ccccc21`, the Potency is reported as active: 50.1 µM. With `CCCNC(=O)N1CCCCCCNC(=O)[C@@H]2CCCC[C@@H]21` the “activity change, negative = cytotoxicity” value was inactive: -2.38%. With `Cc1ccc(C)c(Cn2c(-c3cccc(Cl)c3)nc(C)c(CCO)c2=O)c1` the Potency was inconclusive: 50.1 µM [inhibitor, partial curve, poor fit]. With `Cc1noc(C)c1[S+](=O)([O-])NCCNC(=O)c1ccc(-c2cncnc2)cc1` the “activity change, negative = cytotoxicity” value was inactive: -0.922%. In the case of `O=C(Nc1ccc(Cl)cc1)N1CCCC(C(=O)N2CCCC(c3nc4ncccc4[nH]3)C2)C1` (stereo not drawn), the Potency is reported as inconclusive: 89.1 µM [inhibitor, single point]. For `COC(=O)CNC(=O)c1nc(-c2ccccc2)c2ccccn12`, the Potency was inconclusive: 126 µM [inhibitor, single point]. In the case of `O=C(c1ccc2ccccc2n1)N1CCC(Cc2nc(-c3ccccc3)n[nH]2)CC1`, the Potency is reported as inconclusive: 79.4 µM [inhibitor, single point]. For `O=S(=O)(c1ccccc1F)N1CCC(CCc2nc(C3CCOCC3)no2)CC1`, the Potency was active: 44.7 µM. In the case of `O=C(c1n[nH]c(=O)c2ccccc12)N1CCCC1c1nc(CCOc2ccc(F)cc2)no1` (stereo not drawn), the Potency is reported as inconclusive: 50.1 µM [inhibitor, partial curve, poor fit]. With `Cc1ccc([S+](=O)([O-])NC2CCN(C(=O)c3ccc(-c4ncccc4C#N)cc3)CC2)cc1` the Potency was inconclusive: 79.4 µM [inhibitor, partial curve]. In the case of `COCc1ccc2c(c1)c(OC(C)(C)C(=O)NC1CCN(C)CC1)nn2CCC(C)C`, the Potency is reported as inconclusive: 126 µM [inhibitor, single point]. For `COc1ccc(CN2CCN(C3CCN(c4ccccc4)CC3)CC2CCO)cc1C` (stereo not drawn), the Potency was inconclusive: 25.1 µM [inhibitor, full curve, poor fit]. In the case of `CCCn1ccc2sc(C)c(C(=O)N3CCN(c4ccccn4)CC3)c2c1=O`, the Potency is reported as inconclusive: 89.1 µM [inhibitor, single point]. With `CCOc1ccccc1CNC(=O)CN1CC2CC(C1)[C@H]1CCCC(=O)N1C2` (stereo partly drawn) the Potency was inconclusive: 89.1 µM [inhibitor, single point]. In the case of `CN1CCC(N2C[C@H](O)C[C@H]2c2nc(CS(=O)(=O)c3ccc(F)cc3)no2)CC1`, the “activity change, negative = cytotoxicity” value is reported as inactive: -6.34% [at 172 µM]. In the case of `COc1ccc(-c2cc(N3CCCN(C(=O)c4cccc(Br)c4)CC3)n[nH]2)cc1`, the Potency is reported as inconclusive: 50.1 µM [inhibitor, partial curve, poor fit]. In the case of `O=C(CN1C(=O)COc2ccc(C(=O)COc3ccc(F)cc3)cc21)NCCc1ccccc1`, the Potency is reported as inconclusive: 56.2 µM [inhibitor, partial curve, poor fit]. In the case of `CN1CC(C(=O)NCc2cccc(Cl)c2)NC1=O` (stereo not drawn), the “activity change, negative = cytotoxicity” value is reported as inactive: -5.33% [at 172 µM]. In the case of `CNC(=O)[C@@H]1CN(Cc2ccc(C#N)cc2)C[C@H]1COC`, the “activity change, negative = cytotoxicity” value is reported as inactive: -0.643%. With `CC(C)c1nc2c(c(-c3ccc(Cl)cc3)n1)CCN([S+](=O)([O-])c1ccccc1)CC2` the Potency was inconclusive: 50.1 µM [inhibitor, partial curve, poor fit]. For `Cc1c(CC(=O)NC(C)C)c2c(n1Cc1ccccc1F)CCCC2=O`, the Potency was inconclusive: 89.1 µM [inhibitor, single point]. With `O=C1COc2ccc(OCc3cccnc3)nc2CN1CCOc1ccccc1` the Potency was inconclusive: 50.1 µM [inhibitor, partial curve, poor fit]. For `CCOC(=O)[C@H]1[C@@H](O)C(=O)N(C(C)C)C12CCN(C(=O)C1CCCC1)CC2`, the “activity change, negative = cytotoxicity” value was inactive: -14.3%. For `O=c1cc(N2CCOCC2)oc2c(-c3ccccc3Oc3ccccc3)nccc12`, the Potency was inconclusive: 100 µM [inhibitor, partial curve, poor fit]. For `O=C(C1CCN([S+](=O)([O-])c2cccs2)CC1)N1CCC(c2nc3ncccc3[nH]2)CC1`, the “activity change, negative = cytotoxicity” value was inactive: -26%. For `COC(=O)c1cn([C@H]2CO[C@H]3[C@@H]2OC[C@H]3OC(=O)Nc2ccc(C(C)(C)C)cc2)nn1`, the “activity change, negative = cytotoxicity” value was inactive: -8.96% [at 172 µM]. For `COc1ccc(-c2cn3cc(C(=O)NCc4ccc(F)cc4)nc3s2)cc1`, the Potency was inconclusive: 25.1 µM [inhibitor, single point]. With `COc1cccc(CNC(=O)C23CCC=C2N(C2CCCC2)C(=O)CC3)c1OC` (stereo not drawn) the Potency was inconclusive: 100 µM [inhibitor, single point]. In the case of `CCOC(=O)c1ccc(NC(=O)Cn2nc3c(cc2=O)CN(C(C)=O)CC3)cc1`, the Potency is reported as inconclusive: 89.1 µM [inhibitor, single point]. With `O=C(CNC(=O)c1ccc(-c2cnc3ccccc3c2)cc1)NCC(F)(F)F` the “activity change, negative = cytotoxicity” value was inactive: -29.8%. For `COC[C@H]1CCCN1[C@@H]1[C@H](O)[C@H](CO)O[C@@H]1CN(Cc1cccc(Cl)c1)Cc1cccc(Cl)c1`, the Potency was inconclusive: 50.1 µM [inhibitor, partial curve, poor fit]. With `COc1ccc(CNC(=O)c2c(C)noc2-c2cccc(F)c2)cc1` the “activity change, negative = cytotoxicity” value was inactive: -16.8%. For `CCn1cc2c3c(cccc31)CN(C(=O)c1ccc(OC)c(F)c1)CC2`, the Potency was inconclusive: 39.8 µM [inhibitor, full curve, poor fit]. In the case of `O=C(NC1CCN(c2ccc3nnc(-c4ccccc4)n3n2)CC1)c1ccc(F)cc1`, the “activity change, negative = cytotoxicity” value is reported as inactive: -3.5%. With `Cc1ccsc1CN1CCc2c(sc3ncnc(N(C)C)c23)C1` the Potency was inconclusive: 79.4 µM [inhibitor, single point]. In the case of `CC(C)N1CC(C(=O)NCc2cccs2)NC1=O` (stereo not drawn), the “activity change, negative = cytotoxicity” value is reported as inactive: -13.3% [at 172 µM]. In the case of `CN1C[C@@H](NC(=O)CC(C)(C)C)C[C@H]1c1nc(Cc2ccccc2)no1`, the “activity change, negative = cytotoxicity” value is reported as inactive: -26.1% [at 172 µM]. In the case of `Cc1cc(C)n(-c2cccc(CN(C)C(=O)Cn3nnnc3CN3CCOCC3)c2)n1`, the “activity change, negative = cytotoxicity” value is reported as inactive: 4.15%. With `COC[C@]1(O)CCN(C(=O)CN2CCCC2)CC1(C)C` the Potency was inconclusive: 39.8 µM [inhibitor, single point]. For `COc1cccc(C(CC(=O)NCC(C)C)c2c[nH]c3ccccc23)c1` (stereo not drawn), the “activity change, negative = cytotoxicity” value was inactive: -29.3%. With `CN(C(=O)c1ccc(Cl)nc1)C1CCCc2ccccc21` (stereo not drawn) the Potency was inconclusive: 100 µM [inhibitor, partial curve]. With `COCC(=O)N1CCCC2(Cc3ccccc3NC2=O)C1` (stereo not drawn) the “activity change, negative = cytotoxicity” value was inactive: -18.8% [at 172 µM]. For `O=C(NC1CCCN(c2ccnc3ccnn23)C1)c1ccccc1` (stereo not drawn), the Potency was inconclusive: 70.8 µM [inhibitor, partial curve, poor fit]. For `COc1ccnc(-c2nnc3ccc(NC4CCOCC4)nn23)c1`, the “activity change, negative = cytotoxicity” value was inactive: -24.9% [at 172 µM]. For `O=C1NCCOCCN(C(=O)Nc2ccc3c(c2)OCCO3)[C@@H]2CCCC[C@H]12`, the “activity change, negative = cytotoxicity” value was inactive: -1.24%. With `O=C(c1ccc(Cl)nc1)N1CCC(C(=O)N2CCC(N3CCOCC3=O)CC2)CC1` the “activity change, negative = cytotoxicity” value was inactive: -22.1%. With `COc1ccc(-c2cn3c(n2)CO[C@@H](CNC(C)=O)C3)cc1` the “outcome” value was “inactive [at 172 µM]”. With `O=C(NC1CCCN(c2cc(-c3ccc(F)cc3)[nH]n2)C1)c1ccsc1` (stereo not drawn) the Potency was inconclusive: 56.2 µM [inhibitor, partial curve, poor fit]. For `O[C@H]1CC[C@@H](Cc2cc(-c3ccc(F)cc3)on2)O[C@@H]1CNCc1ccccc1Cl`, the Potency was inconclusive: 79.4 µM [inhibitor, partial curve, poor fit]. For `O=C(OCc1ccccc1)N1CCOCC12CCN(Cc1cccnc1)CC2`, the Potency was inconclusive: 70.8 µM [inhibitor, partial curve, poor fit]. For `Cc1ccc(C(=O)N2CCC3(CC2)CC(OCC2CC2)CCO3)cn1` (stereo not drawn), the “activity change, negative = cytotoxicity” value was inactive: 3.61%. In the case of `COc1ccc(-c2c(C(=O)NCC3CCCCC3)nc3sccn23)cc1`, the Potency is reported as inconclusive: 100 µM [inhibitor, partial curve, poor fit]. For `O=C(NC[C@H]1OC[C@@H](NC2CCCCC2)[C@@H]1O)C1CCCC1`, the “outcome” value was “inactive [at 172 µM]”. In the case of `COc1ccc(OC)c(CNC(=O)c2ccc3c(c2)N(C)C2CCCCN2C3=O)c1` (stereo not drawn), the Potency is reported as inconclusive: 35.5 µM [inhibitor, partial curve]. With `CCC(C)NC(=O)C(C)N1C(=O)COc2ccc(C(=O)COc3ccc(OC)cc3)cc21` (stereo not drawn) the “activity change, negative = cytotoxicity” value was inactive: -32.4%. In the case of `Cc1ccc(C)c(S(=O)(=O)N2CCCC(Cn3c(C)nc4cccnc43)C2)c1` (stereo not drawn), the Potency is reported as active: 39.8 µM. For `Cc1c(CC(=O)N2CCC(O)CC2)c2c(n1Cc1ccccc1F)CCCC2=O`, the “activity change, negative = cytotoxicity” value was inactive: 1.08%. For `CCC(=O)Nc1ccc(C2(C(=O)N3CCCC(C)C3)CCCCC2)cc1` (stereo not drawn), the Potency was inconclusive: 89.1 µM [inhibitor, single point]. With `Cc1ccc(NC(=O)CC2CCCN(c3cnn(CC4CC4)c(=O)c3)C2)cc1C` (stereo not drawn) the Potency was inconclusive: 70.8 µM [inhibitor, single point]. In the case of `CCOc1cc(=O)n2c(c1C(=O)Nc1cccc(C(=O)OC)c1)CCCC2`, the Potency is reported as inconclusive: 17.8 µM [inhibitor, full curve, poor fit]. With `CCCn1ccc2sc(C)c(C(=O)NCc3ccccc3OCC)c2c1=O` the “activity change, negative = cytotoxicity” value was inactive: 4.32%. For `COc1ccc(CN2C(=O)O[C@@H]3CN(C4CCCCC4)C[C@@H]32)cc1OC`, the Potency was inconclusive: 28.2 µM [inhibitor, full curve, poor fit]. In the case of `C[C@]1(CO)C2CC[C@@H](O)[C@@H](CC(=O)N3CC[C@@H](O)C3)[C@]2(C)CC[C@H]1OC(=O)Nc1ccc(Cl)c(Cl)c1` (stereo partly drawn), the Potency is reported as inconclusive: 89.1 µM [inhibitor, single point]. With `C[S+](=O)([O-])Nc1cccc(N2C[C@@H]3C(C(=O)NC4CCOCC4)=NO[C@@H]3C2)c1` the Potency was inconclusive: 126 µM [inhibitor, single point].
